# Some of the results follow. These are noisy estimates, calculated here from bound and input reads.
# Molecular target: T1, Pho4 (S. cerevisiae) (UniProt P07270)
# T1 sequence: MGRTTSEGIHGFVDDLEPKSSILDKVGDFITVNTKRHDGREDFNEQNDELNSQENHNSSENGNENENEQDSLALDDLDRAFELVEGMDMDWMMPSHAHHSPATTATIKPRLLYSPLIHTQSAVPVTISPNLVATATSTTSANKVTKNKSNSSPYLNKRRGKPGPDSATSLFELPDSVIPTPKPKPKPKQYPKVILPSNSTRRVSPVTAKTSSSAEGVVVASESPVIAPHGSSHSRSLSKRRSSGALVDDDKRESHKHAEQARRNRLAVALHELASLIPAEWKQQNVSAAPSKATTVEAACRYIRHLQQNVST
# Assay: relative binding free energy (BET-seq); higher = weaker binding
# Details: reference: library average
row,Sequence,relative binding free energy [kcal/mol]
1,TTGGGCACGTGGAACT,0.04
2,GATTGCACGTGGGGGG,-0.07
3,CTGTGCACGTGGGTCT,-0.15
4,TTAAACACGTGGGTAT,-0.12
5,ATGATCACGTGGTGGG,0.18
6,GTGTCCACGTGGTGGA,-0.08
7,TCGTGCACGTGATCGG,0.24
8,GGGCCCACGTGGGTAG,-0.2
9,TCTTTCACGTGTCATT,0.2
10,CGAGGCACGTGGATGT,-0.11
11,GGGTGCACGTGTAGCC,0.19
12,GGGCGCACGTGGAGGT,-0.02
13,TGGGACACGTGATTAA,0.26
14,TTGGTCACGTGCAAGT,0.08
15,ATGTGCACGTGTTCTG,-0.01
16,CGGAGCACGTGAGAGG,0.22
17,TATAACACGTGTCGGG,0.01
18,GCTGGCACGTGTTATA,0
19,AGATGCACGTGTGTAC,0.08
20,TAGGTCACGTGGCTGT,0.01
21,TTTGGCACGTGTGTGT,0.02

row,Sequence,relative binding free energy [kcal/mol]
1,TTAATCACGTGATAGG,0.19
2,AGGGACACGTGTATTA,0.02
3,ATGTCCACGTGAGGGG,0.2
4,AGTTGCACGTGTATAA,0.06
5,AACGTCACGTGGGAGG,0.11
6,ATGTGCACGTGGCTGA,0.01
7,GCACACACGTGGGGGG,-0.23
8,CTTTACACGTGTTTTT,0.03
9,CATTGCACGTGGGGAG,-0.03
10,GTGGTCACGTGGGCAT,0.07
11,CCATGCACGTGGTGTT,-0.12
12,CGTTTCACGTGATAGG,0.31
13,AAAGACACGTGTTTGT,-0.07
14,TAGTTCACGTGTGGCG,0.18
15,AGATACACGTGCGGTT,-0.07
16,TATGCCACGTGTTGGG,-0.11
17,CTTGTCACGTGAAGAG,0.17
18,TAAGGCACGTGGGTTG,-0.11
19,CGGGCCACGTGTGGGT,0.03
20,TACGTCACGTGATAGG,0.17
21,TATGGCACGTGAACGG,0.1

row,Sequence,relative binding free energy [kcal/mol]
1,TATTGCACGTGTAAAG,0.2
2,GAATTCACGTGGAGGG,0.27
3,TTGGACACGTGCGTTA,-0.07
4,TGGGACACGTGTGTTC,0.16
5,CTGGGCACGTGATAGG,-0.12
6,GGAAGCACGTGTTTTA,0.08
7,GTTATCACGTGTATTT,0.25
8,AGCTGCACGTGTTGGG,0
9,TGAAGCACGTGGTAAG,-0.14
10,AGTTGCACGTGATGCG,-0.1
11,TGACACACGTGTTTGT,0.03
12,TTCATCACGTGAGGGT,0.39
13,GTTTACACGTGAGTGA,0.15
14,TAGGTCACGTGTAGTC,0.22
15,TTAGTCACGTGAAAAG,0.22
16,AGGTTCACGTGGAGCT,0.3
17,ATCGTCACGTGAAGGG,0.2
18,TGTCGCACGTGGGGAG,-0.25
19,TGCTGCACGTGCTGTG,-0.07
20,GGCTGCACGTGTATAT,0.15
21,CGTTTCACGTGGCATT,0.21

# Source: the BET-seq Pho4 binding data (Le et al. 2018)
